Values joined by “and” are separate entries in the source; they are usually repeats but may differ in a detail not shown here. Identical values can stand only once. Like-named read-outs stand apart in the source and are kept apart here.
Columns and labels:
HCMV UL50-UL53 = target: T1, HCMV UL50-UL53 (Human cytomegalovirus, UniProt P16794); test: biochemical; assay type: binding; conditions: for HTRF ratio for NEC + GK1: A665nm/A620nm * 10000; for Fluorescence at 620 nm for NEC + GK1, Mean / HTRF ratio for NEC + GK1, Mean: triplicate
T1 construct: GST (N, cleaved yes); 13-residue glycine-serine linker […]; made in house; host or cells: E. coli BL21 (DE3) RIPL

HSV-1 strain KOS = assay type: cell-based, herpes simplex virus 1; conditions: for anti-HSV: number of plaques relative to DMSO vehicle: replicates
Experimental: Standard plaque reduction assays used to assess the antiviral activity of GK1 and GK2 against HSV in HFF cells were performed as described with minor modifications. Briefly, 1x10^5 HFF cells in each well of a 24-well plate were infected with ~ 100 PFU/well of HSV-1 strain KOS. After 2h, the inocula was removed and DMEM containing methylcellulose, 1% DMSO, and various concentrations of GK1 or GK2 was added. After two days, plaques were stained with crystal violet and counted. ED50’s for GK1 or GK2 were calculated as described above.

in vitro = assay type: cell-based, human; conditions: human, read-out: CC50, cytotoxicity on HFF
Experimental: (§1) Cytotoxicities of various compounds were determined using a WST-1 assay that measures metabolic activity (Roche), and CC50’s were calculated as described previously.

HFF cells = test: in vitro; assay type: cell-based, human; conditions: for cytotoxicity on HFF: WST-1 absorbance relative to DMSO vehicle: replicates
Experimental: as §1

pp28 expression = test system: pp28 expression; set-up: method as in PMID 28100301; conditions: 1 μM; cited from earlier work

C=CC(=O)Nc1cccc(Oc2cc(Cl)nc3[nH]ccc23)c1 [GK1]
reduction of NEC subunit interactions in the HTRF assay (HCMV UL50-UL53; 10 μM): ~ 2.5 fold
HTRF ratio for NEC + GK1 (HCMV UL50-UL53; 0.5 microM, replicates): 58415 and 58982 and 60956
Fluorescence at 620 nm for NEC + GK1 (HCMV UL50-UL53; 0.5 microM, replicates): 5180 and 5578 and 5503
Fluorescence at 620 nm for NEC + GK1, Mean (HCMV UL50-UL53; 0.5 microM): 5420
HTRF ratio for NEC + GK1, Mean (HCMV UL50-UL53; 0.5 microM): 59451
HTRF ratio for NEC + GK1 (HCMV UL50-UL53; 0.71 microM, replicates): 54407 and 56455 and 57112
Fluorescence at 620 nm for NEC + GK1 (HCMV UL50-UL53; 0.71 microM, replicates): 5106 and 5267 and 5304
Fluorescence at 620 nm for NEC + GK1, Mean (HCMV UL50-UL53; 0.71 microM): 5226
HTRF ratio for NEC + GK1, Mean (HCMV UL50-UL53; 0.71 microM): 55991
HTRF ratio for NEC + GK1 (HCMV UL50-UL53; 1.01 microM, replicates): 49650 and 53513 and 52181
Fluorescence at 620 nm for NEC + GK1 (HCMV UL50-UL53; 1.01 microM, replicates): 5540 and 5383 and 5502
Fluorescence at 620 nm for NEC + GK1, Mean (HCMV UL50-UL53; 1.01 microM): 5475
HTRF ratio for NEC + GK1, Mean (HCMV UL50-UL53; 1.01 microM): 51781
HTRF ratio for NEC + GK1 (HCMV UL50-UL53; 1.43 microM, replicates): 46887 and 48106 and 49089
Fluorescence at 620 nm for NEC + GK1 (HCMV UL50-UL53; 1.43 microM, replicates): 5391 and 5518 and 5431
Fluorescence at 620 nm for NEC + GK1, Mean (HCMV UL50-UL53; 1.43 microM): 5447
HTRF ratio for NEC + GK1, Mean (HCMV UL50-UL53; 1.43 microM): 48027
HTRF ratio for NEC + GK1 (HCMV UL50-UL53; 2.04 microM, replicates): 41126 and 43851 and 42494
Fluorescence at 620 nm for NEC + GK1 (HCMV UL50-UL53; 2.04 microM, replicates): 5615 and 5622 and 5909
Fluorescence at 620 nm for NEC + GK1, Mean (HCMV UL50-UL53; 2.04 microM): 5715
HTRF ratio for NEC + GK1, Mean (HCMV UL50-UL53; 2.04 microM): 42490
HTRF ratio for NEC + GK1 (HCMV UL50-UL53; 2.91 microM, replicates): 40217 and 39971 and 38664
Fluorescence at 620 nm for NEC + GK1 (HCMV UL50-UL53; 2.91 microM, replicates): 5392 and 5476 and 5585
Fluorescence at 620 nm for NEC + GK1, Mean (HCMV UL50-UL53; 2.91 microM): 5484
HTRF ratio for NEC + GK1, Mean (HCMV UL50-UL53; 2.91 microM): 39617
HTRF ratio for NEC + GK1 (HCMV UL50-UL53; 4.15 microM, replicates): 31483 and 33868 and 33831
Fluorescence at 620 nm for NEC + GK1 (HCMV UL50-UL53; 4.15 microM, replicates): 5975 and 5753 and 5944
Fluorescence at 620 nm for NEC + GK1, Mean (HCMV UL50-UL53; 4.15 microM): 5891
HTRF ratio for NEC + GK1, Mean (HCMV UL50-UL53; 4.15 microM): 33061
HTRF ratio for NEC + GK1 (HCMV UL50-UL53; 5.91 microM, replicates): 32268 and 30080 and 28992
Fluorescence at 620 nm for NEC + GK1 (HCMV UL50-UL53; 5.91 microM, replicates): 5852 and 5634 and 5816
Fluorescence at 620 nm for NEC + GK1, Mean (HCMV UL50-UL53; 5.91 microM): 5767
HTRF ratio for NEC + GK1, Mean (HCMV UL50-UL53; 5.91 microM): 30447
HTRF ratio for NEC + GK1 (HCMV UL50-UL53; 8.42 microM, replicates): 25946 and 24980 and 25263
Fluorescence at 620 nm for NEC + GK1 (HCMV UL50-UL53; 8.42 microM, replicates): 5854 and 6175 and 6116
Fluorescence at 620 nm for NEC + GK1, Mean (HCMV UL50-UL53; 8.42 microM): 6048
HTRF ratio for NEC + GK1, Mean (HCMV UL50-UL53; 8.42 microM): 25396
HTRF ratio for NEC + GK1 (HCMV UL50-UL53; 12 microM, replicates): 23255 and 23274 and 23606
Fluorescence at 620 nm for NEC + GK1 (HCMV UL50-UL53; 12 microM, replicates): 5899 and 5853 and 5912
Fluorescence at 620 nm for NEC + GK1, Mean (HCMV UL50-UL53; 12 microM): 5888
HTRF ratio for NEC + GK1, Mean (HCMV UL50-UL53; 12 microM): 23378
HTRF ratio for NEC + GK1 (HCMV UL50-UL53; 17.1 microM, replicates): 17877 and 20917 and 19067
Fluorescence at 620 nm for NEC + GK1 (HCMV UL50-UL53; 17.1 microM, replicates): 6496 and 6008 and 6376
Fluorescence at 620 nm for NEC + GK1, Mean (HCMV UL50-UL53; 17.1 microM): 6293
HTRF ratio for NEC + GK1, Mean (HCMV UL50-UL53; 17.1 microM): 19287
HTRF ratio for NEC + GK1 (HCMV UL50-UL53; 24.2 microM, replicates): 18144 and 18416 and 18741
Fluorescence at 620 nm for NEC + GK1 (HCMV UL50-UL53; 24.2 microM, replicates): 5803 and 5999 and 5884
Fluorescence at 620 nm for NEC + GK1, Mean (HCMV UL50-UL53; 24.2 microM): 5895
HTRF ratio for NEC + GK1, Mean (HCMV UL50-UL53; 24.2 microM): 18434
HTRF ratio for NEC + GK1 (HCMV UL50-UL53; 34.7 microM, replicates): 15326 and 15907 and 15649
Fluorescence at 620 nm for NEC + GK1 (HCMV UL50-UL53; 34.7 microM, replicates): 6036 and 5898 and 6162
Fluorescence at 620 nm for NEC + GK1, Mean (HCMV UL50-UL53; 34.7 microM): 6032
HTRF ratio for NEC + GK1, Mean (HCMV UL50-UL53; 34.7 microM): 15627
HTRF ratio for NEC + GK1 (HCMV UL50-UL53; 49.5 microM, replicates): 14015 and 15215 and 18406
Fluorescence at 620 nm for NEC + GK1 (HCMV UL50-UL53; 49.5 microM, replicates): 5718 and 5728 and 5589
Fluorescence at 620 nm for NEC + GK1, Mean (HCMV UL50-UL53; 49.5 microM): 5678
HTRF ratio for NEC + GK1, Mean (HCMV UL50-UL53; 49.5 microM): 15879
remaining activity at 0.2 µM (HCMV UL50-UL53; WT UL50-UL53, 0.20 μM compound, replicates, read-out: normalized FRET signal relative to control without inhibitor): 91%
remaining activity at 1.56 µM (HCMV UL50-UL53; WT UL50-UL53, 1.56 μM compound, replicates, read-out: normalized FRET signal relative to control without inhibitor): 71%
remaining activity at 50 µM (HCMV UL50-UL53; WT UL50-UL53, 50.00 μM compound, replicates, read-out: normalized FRET signal relative to control without inhibitor): 25%
remaining activity at 25 µM (HCMV UL50-UL53; WT UL50-UL53, […] compound, replicates, read-out: normalized FRET signal relative to control without inhibitor): 26%
IC50 (HCMV UL50-UL53; tagged HCMV NEC complex): 5.3 ± 1.1 µM
anti-HSV: number of plaques relative to DMSO vehicle (HSV-1 strain KOS; 0.40 μM compound, 2 dpi): 98.0000 and 100.0000 (2×)
anti-HSV: number of plaques relative to DMSO vehicle (HSV-1 strain KOS; 0.80 μM compound, 2 dpi): 90.0000 and 100.0000 (2×)
anti-HSV: number of plaques relative to DMSO vehicle (HSV-1 strain KOS; 1.60 μM compound, 2 dpi): 78.0000 and 92.0000 and 85.0000
anti-HSV: number of plaques relative to DMSO vehicle (HSV-1 strain KOS; 50.00 μM compound, 2 dpi): 0.0000
ED50, anti-HSV-1 (HSV-1 strain KOS; HFF, standard plaque reduction assay, 2 dpi): 11 µM
cytotoxic potency relative to anti-HSV-1 potency (HSV-1 strain KOS; two-day WST-1 vs HSV-1 plaque reduction): 3- to 4 fold
CC50 (in vitro; WST-1, six days, in parallel with automated plaque reduction assay): 22 µM
CC50 (in vitro; WST-1, two days, in parallel with HSV-1 plaque reduction assay): 40 µM
cytotoxicity on HFF: WST-1 absorbance relative to DMSO vehicle (HFF cells; 0.20 μM compound, 6 days): 100.0000 (2×) and 95.0000
cytotoxicity on HFF: WST-1 absorbance relative to DMSO vehicle (HFF cells; 0.40 μM compound, 2 days): 108.0000 and 100.0000 (2×)
cytotoxicity on HFF: WST-1 absorbance relative to DMSO vehicle (HFF cells; 0.40 μM compound, 6 days): 100.0000 (2×) and 94.0000
cytotoxicity on HFF: WST-1 absorbance relative to DMSO vehicle (HFF cells; 0.80 μM compound, 2 days): 105.0000 and 95.0000 and 100.0000
cytotoxicity on HFF: WST-1 absorbance relative to DMSO vehicle (HFF cells; 0.80 μM compound, 6 days): 100.0000
cytotoxicity on HFF: WST-1 absorbance relative to DMSO vehicle (HFF cells; 1.60 μM compound, 2 days): 110.0000 and 97.0000 and 102.0000
cytotoxicity on HFF: WST-1 absorbance relative to DMSO vehicle (HFF cells; 1.60 μM compound, 6 days): 100.0000 (2×) and 90.0000
cytotoxicity on HFF: WST-1 absorbance relative to DMSO vehicle (HFF cells; 50.00 μM compound, 2 days): 33.0000 and 41.0000 and 45.0000
CC50 (HFF cells; WST-1, six days, in parallel with automated plaque reduction assay, read-out: CC50, cytotoxicity on HFF): 20 µM
inhibition of pp28 expression in a screen (pp28 expression): did not score as positive
